# Reference: the supplement of paper PMC8728848
# The list shows a part of the results.
# Experiments:
# Experiment in all cases: glycan array binding signal (z-score within array); higher = stronger binding
# Details in all cases: glycan notation: IUPAC condensed, linker removed
# [1] = molecular target: GalNAc(a1-3)GalNAc(a1-3)Gal(a1-4)Gal(b1-4)GlcNAc
# In short: (§1)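 Arrays were curated from the Consortium for Functional Glycomics database, 3228 in total, and kept only where the protein sequence was available. Binding is expressed as a within-array Z-score. This score was averaged across arrays of the same protein sequence at different concentrations or buffers and across linkers, and negative values can be read as non-binding.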
# [2] = molecular target: GalNAc(a1-3)GalNAc(b1-3)Gal(a1-4)Gal(b1-4)Glc
# In short: as §1
# [3] = molecular target: GalNAc(a1-3)GalNAc(b1-3)Gal(a1-4)Gal(b1-4)GlcNAc
# In short: as §1
# GalNAc(b1-3)Gal = molecular target: GalNAc(b1-3)Gal
# In short: as §1
# [4] = molecular target: GalNAc(b1-3)Gal(a1-4)Gal(b1-4)GlcNAc
# In short: as §1
# [5] = molecular target: GalNAc(b1-3)Gal(a1-4)Gal(b1-4)GlcNAc(b1-3)Gal(b1-4)Glc
# In short: as §1
# [6] = molecular target: GalNAc(b1-3)Gal(a1-6)Gal(b1-4)Glc
# In short: as §1
# GalNAc(b1-3)GalNAc = molecular target: GalNAc(b1-3)GalNAc
# In short: as §1
# GalNAc(b1-4)Gal(b1-4)Glc = molecular target: GalNAc(b1-4)Gal(b1-4)Glc
# In short: as §1
# GalNAc(b1-4)GlcNAc = molecular target: GalNAc(b1-4)GlcNAc
# In short: as §1
# [7] = molecular target: GalNAc(b1-4)GlcNAc(b1-2)Man(a1-3)[GalNAc(b1-4)GlcNAc(b1-2)Man(a1-6)]Man(b1-4)GlcNAc(b1-4)GlcNAc
# In short: as §1
# GalNAc(b1-4)GlcNAc6S = molecular target: GalNAc(b1-4)GlcNAc6S
# In short: as §1
# GalNAc(b1-6)GalNAc = molecular target: GalNAc(b1-6)GalNAc
# In short: as §1
# GalNAc3S(b1-4)GlcNAc = molecular target: GalNAc3S(b1-4)GlcNAc
# In short: as §1
# GalNAc3S(b1-4)GlcNAc3S = molecular target: GalNAc3S(b1-4)GlcNAc3S
# In short: as §1
# GalNAc4S6S(b1-4)GlcNAc = molecular target: GalNAc4S6S(b1-4)GlcNAc
# In short: as §1
# GalNAc6S(b1-4)GlcNAc = molecular target: GalNAc6S(b1-4)GlcNAc
# In short: as §1
# Glc(a1-4)Glc = molecular target: Glc(a1-4)Glc
# In short: as §1
# [8] = molecular target: Glc(a1-4)Glc(a1-4)Glc(a1-4)Glc
# In short: as §1
# Glc(a1-6)Glc(a1-6)Glc = molecular target: Glc(a1-6)Glc(a1-6)Glc
# In short: as §1
# [9] = molecular target: Glc(a1-6)Glc(a1-6)Glc(a1-6)Glc
# In short: as §1
# Glc(b1-4)Glc = molecular target: Glc(b1-4)Glc
# In short: as §1
# Glc(b1-6)Glc = molecular target: Glc(b1-6)Glc
# In short: as §1
# GlcA(b1-3)Gal = molecular target: GlcA(b1-3)Gal
# In short: as §1
# GlcA(b1-3)GlcNAc = molecular target: GlcA(b1-3)GlcNAc
# In short: as §1
# GlcA(b1-6)Gal = molecular target: GlcA(b1-6)Gal
# In short: as §1
# [10] = molecular target: GlcNAc(a1-3)Gal(b1-4)GlcNAc
# In short: as §1
# [11] = molecular target: GlcNAc(a1-4)Gal(b1-3)GlcNAc
# In short: as §1
# [12] = molecular target: GlcNAc(a1-4)Gal(b1-4)GalNAc
# In short: as §1
# [13] = molecular target: GlcNAc(a1-4)Gal(b1-4)GlcNAc
# In short: as §1
# [14] = molecular target: GlcNAc(a1-4)Gal(b1-4)GlcNAc(b1-3)Gal(b1-4)Glc
# In short: as §1
# [15] = molecular target: GlcNAc(a1-4)Gal(b1-4)GlcNAc(b1-3)Gal(b1-4)GlcNAc
# In short: as §1
# [16] = molecular target: GlcNAc(a1-4)Gal(b1-4)GlcNAc(b1-3)Gal(b1-4)GlcNAc(b1-3)Gal(b1-4)GlcNAc
# In short: as §1
# [17] = molecular target: GlcNAc(a1-4)Gal(b1-4)GlcNAc(b1-3)Gal(b1-4)[Fuc(a1-3)]GlcNAc(b1-3)Gal(b1-4)[Fuc(a1-3)]GlcNAc
# In short: as §1
# [18] = molecular target: GlcNAc(a1-6)Gal(b1-4)GlcNAc
# In short: as §1
# [19] = molecular target: GlcNAc(b1-2)Gal(b1-3)GalNAc
# In short: as §1
# [20] = molecular target: GlcNAc(b1-2)Man(a1-3)[GlcNAc(b1-2)Man(a1-6)]Man(b1-4)GlcNAc(b1-4)GlcNAc
# In short: as §1
# [21] = molecular target: GlcNAc(b1-2)Man(a1-3)[GlcNAc(b1-2)Man(a1-6)]Man(b1-4)GlcNAc(b1-4)[Fuc(a1-6)]GlcNAc
# In short: as §1
# [22] = molecular target: GlcNAc(b1-2)Man(a1-3)[GlcNAc(b1-4)][GlcNAc(b1-2)Man(a1-6)]Man(b1-4)GlcNAc(b1-4)GlcNAc
# In short: as §1
# [23] = molecular target: GlcNAc(b1-2)[GlcNAc(b1-4)]Man(a1-3)[GlcNAc(b1-2)Man(a1-6)]Man(b1-4)GlcNAc(b1-4)GlcNAc
# In short: as §1
# [24] = molecular target: GlcNAc(b1-2)[GlcNAc(b1-4)]Man(a1-3)[GlcNAc(b1-4)][GlcNAc(b1-2)Man(a1-6)]Man(b1-4)GlcNAc(b1-4)GlcNAc
# In short: as §1
# [25] = molecular target: GlcNAc(b1-2)[GlcNAc(b1-4)]Man(a1-3)[GlcNAc(b1-4)][GlcNAc(b1-2)[GlcNAc(b1-6)]Man(a1-6)]Man(b1-4)GlcNAc(b1-4)GlcNAc
# In short: as §1
# [26] = molecular target: GlcNAc(b1-2)[GlcNAc(b1-4)]Man(a1-3)[GlcNAc(b1-4)][GlcNAc(b1-2)[GlcNAc(b1-6)]Man(a1-6)]Man(b1-4)GlcNAc(b1-4)[Fuc(a1-6)]GlcNAc
# In short: as §1
# [27] = molecular target: GlcNAc(b1-2)[GlcNAc(b1-6)]Man(a1-6)[GlcNAc(b1-2)Man(a1-3)]Man(b1-4)GlcNAc(b1-4)GlcNAc
# In short: as §1
# [28] = molecular target: GlcNAc(b1-2)[GlcNAc(b1-6)]Man(a1-6)[GlcNAc(b1-2)Man(a1-3)]Man(b1-4)GlcNAc(b1-4)[Fuc(a1-6)]GlcNAc
# In short: as §1
binder,measurement,setting,value
"SpnanA (Streptococcus pneumoniae), P62575 (protein) MVIEKEDVETNASNGQRVDLSSELDKLKKLENATVHMEFKPDAKAPAFYNLFSVSSATKKDEYFTMAVYNNTATLEGRGSDGKQFYNNYNDAPLKVKPGQWNSVTFTVEKPTAELPKGRVRLYVNGVLSRTSLRSGNFIKDMPDVTHVQIGATKRANNTVWGSNLQIRNLTVYNRALTPEEVQKRS",glycan array binding signal (z-score),[1],-0.107
same,glycan array binding signal (z-score),[2],-0.252
same,glycan array binding signal (z-score),[3],-0.33
same,glycan array binding signal (z-score),GalNAc(b1-3)Gal,-0.257
same,glycan array binding signal (z-score),[4],-0.114
same,glycan array binding signal (z-score),[5],-0.288
same,glycan array binding signal (z-score),[6],-0.324
same,glycan array binding signal (z-score),GalNAc(b1-3)GalNAc,-0.139
same,glycan array binding signal (z-score),GalNAc(b1-4)Gal(b1-4)Glc,-0.198
same,glycan array binding signal (z-score),GalNAc(b1-4)GlcNAc,0.178
same,glycan array binding signal (z-score),[7],-0.214
same,glycan array binding signal (z-score),GalNAc(b1-4)GlcNAc6S,-0.095
same,glycan array binding signal (z-score),GalNAc(b1-6)GalNAc,-0.298
same,glycan array binding signal (z-score),GalNAc3S(b1-4)GlcNAc,-0.342
same,glycan array binding signal (z-score),GalNAc3S(b1-4)GlcNAc3S,-0.288
same,glycan array binding signal (z-score),GalNAc4S6S(b1-4)GlcNAc,-0.292
same,glycan array binding signal (z-score),GalNAc6S(b1-4)GlcNAc,-0.265
same,glycan array binding signal (z-score),Glc(a1-4)Glc,-0.28
same,glycan array binding signal (z-score),[8],-0.069
same,glycan array binding signal (z-score),Glc(a1-6)Glc(a1-6)Glc,-0.303
same,glycan array binding signal (z-score),[9],0.035
same,glycan array binding signal (z-score),Glc(b1-4)Glc,-0.21
same,glycan array binding signal (z-score),Glc(b1-6)Glc,-0.304
same,glycan array binding signal (z-score),GlcA(b1-3)Gal,-0.272
same,glycan array binding signal (z-score),GlcA(b1-3)GlcNAc,6.22
same,glycan array binding signal (z-score),GlcA(b1-6)Gal,-0.213
same,glycan array binding signal (z-score),[10],-0.274
same,glycan array binding signal (z-score),[11],-0.318
same,glycan array binding signal (z-score),[12],-0.197
same,glycan array binding signal (z-score),[13],-0.123
same,glycan array binding signal (z-score),[14],-0.293
same,glycan array binding signal (z-score),[15],-0.204
same,glycan array binding signal (z-score),[16],-0.207
same,glycan array binding signal (z-score),[17],0.295
same,glycan array binding signal (z-score),[18],-0.33
same,glycan array binding signal (z-score),[19],-0.315
same,glycan array binding signal (z-score),[20],-0.229
same,glycan array binding signal (z-score),[21],0.395
same,glycan array binding signal (z-score),[22],-0.237
same,glycan array binding signal (z-score),[23],-0.266
same,glycan array binding signal (z-score),[24],-0.23
same,glycan array binding signal (z-score),[25],-0.264
same,glycan array binding signal (z-score),[26],-0.363
same,glycan array binding signal (z-score),[27],-0.227
same,glycan array binding signal (z-score),[28],-0.34
